Measured values from publication PMC4336329 (PLoS ONE, 2015).
In all, about 310,000 compounds went through this assay and about 14,000 (4.5%) showed an effect of 50% or more. Effects have a minus sign here. The list shows a part of the results.

target: human ether-à-go-go-related gene (hERG) potassium channel (human, UniProt Q12809); test: primary screen, population patch clamp on CHO cells stably expressing hERG
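Further: peak tail current of the secondary pulse compared with the same well before compound.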

human ether-à-go-go-related gene (hERG) potassium channel, sequence (Q12809 whole entry, looked up): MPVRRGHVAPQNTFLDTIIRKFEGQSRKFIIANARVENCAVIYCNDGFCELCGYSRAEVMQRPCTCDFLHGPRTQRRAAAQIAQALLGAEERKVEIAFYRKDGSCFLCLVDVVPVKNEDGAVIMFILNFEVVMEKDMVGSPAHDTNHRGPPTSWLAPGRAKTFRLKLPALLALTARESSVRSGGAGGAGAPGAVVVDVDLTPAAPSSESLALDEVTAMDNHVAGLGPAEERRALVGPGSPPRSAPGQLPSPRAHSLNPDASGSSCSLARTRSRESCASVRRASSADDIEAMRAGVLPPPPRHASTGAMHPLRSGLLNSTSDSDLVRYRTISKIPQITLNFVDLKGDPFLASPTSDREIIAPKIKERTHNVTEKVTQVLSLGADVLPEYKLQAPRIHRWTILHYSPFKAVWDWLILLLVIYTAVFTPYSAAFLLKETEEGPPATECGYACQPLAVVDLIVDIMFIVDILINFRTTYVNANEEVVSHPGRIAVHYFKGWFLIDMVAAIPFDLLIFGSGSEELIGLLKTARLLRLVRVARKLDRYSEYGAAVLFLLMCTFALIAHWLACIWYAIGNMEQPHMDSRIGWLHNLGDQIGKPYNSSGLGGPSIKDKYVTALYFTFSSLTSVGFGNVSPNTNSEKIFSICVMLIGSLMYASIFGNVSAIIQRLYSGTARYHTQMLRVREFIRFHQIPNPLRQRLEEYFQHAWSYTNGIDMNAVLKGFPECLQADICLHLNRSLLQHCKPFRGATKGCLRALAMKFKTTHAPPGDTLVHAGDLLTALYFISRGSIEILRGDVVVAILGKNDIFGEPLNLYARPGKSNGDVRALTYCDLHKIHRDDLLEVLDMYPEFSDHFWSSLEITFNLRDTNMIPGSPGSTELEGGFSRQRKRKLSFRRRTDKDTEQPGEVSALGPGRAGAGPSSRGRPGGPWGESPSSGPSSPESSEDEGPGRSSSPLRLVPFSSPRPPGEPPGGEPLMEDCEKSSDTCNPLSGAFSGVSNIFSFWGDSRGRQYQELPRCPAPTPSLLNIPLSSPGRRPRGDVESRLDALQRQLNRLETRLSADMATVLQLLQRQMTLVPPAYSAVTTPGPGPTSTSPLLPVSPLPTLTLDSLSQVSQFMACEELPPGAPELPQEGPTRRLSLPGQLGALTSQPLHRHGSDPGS

Structure (SMILES)	hERG current change (%, negative = inhibition) at 10uM
Cc1cnn(C(=S)NCc2ccco2)c1	5.8%
O=C(N/C(=C\c1cccnc1)C(=O)N1CCCCC1)c1cccc(Br)c1	2.68%
O=C(NCCN1CCOCC1)c1csc2c1CCCCC2	5.21%
Cc1cc(-n2c(C)cc(C(=O)CN3C(=O)NC4(CCCC4)C3=O)c2C)no1	-12.9%
Cc1ccc(C)c(Cn2c(O)c(N=NC(=S)Nc3ccccc3F)c3ccccc32)c1	9.52%
COc1ccc(C2SC[C@@H](C(=O)O)N2C(C)=O)cc1 (stereo partly drawn)	2.53%
O=C(c1cc(-c2ccc(Cl)cc2)on1)N1CCCCCC1	2.79%
Cc1ccc(C(=O)N/C(=C\c2sccc2C)C(=O)NCc2ccncc2)cc1	-30.5%
O=C(NCCN1CCOCC1)c1cc(-c2ccc(Br)cc2)on1	-22%
COc1ccc(-c2noc(CNS(=O)(=O)c3ccccc3)n2)cc1	5.08%
COc1ccc(C2CN=NC23CCCc2ccccc2C3=O)cc1 (stereo not drawn)	0.823%
CN1C2Cc3c(n(C)c4ccccc34)C1CC=C2CO (stereo not drawn)	12.1%
C1CCN=C(Nc2nc3c(s2)CCCC3)CC1	-16.3%
Cc1nn(C)cc1C(C(=O)NC1CCCCC1)N(C(=O)Cc1cccs1)c1ccc(C(C)C)cc1 (stereo not drawn)	-31.7%
Cc1cccc(NC(=O)NC2CC3CCC(C2)N3Cc2ccco2)c1 (stereo not drawn)	-2.61%
Cc1ccc(CNC(=O)C2CCC(=O)N(C3CCCC3)C2)c(F)c1F (stereo not drawn)	2.29%
O=C(COc1ccccc1Cl)NCCCNC(=O)c1ccccn1	15.8%
Cc1ccc(NC(=O)Cc2nc(CN(C)CC(=O)Nc3ccc(C)cc3)cs2)cc1	-26%
Cc1cc2ncn(CC(O)COc3cccc(C(=O)O)c3)c2cc1C (stereo not drawn)	-10.8%
O=C1/C(=C/c2ccc(F)cc2)SC(=S)N1CCCC(=O)N1CCCCC1CCO (stereo not drawn)	-35%
CCCNS(=O)(=O)c1cccc(C(=O)NC2CCCc3ccccc32)c1 (stereo not drawn)	-31.8%
Nc1c(C(=O)CSc2ncccn2)c(=O)[nH]c(=O)n1C1CC1	12.3%
COc1cccc(/C=C/C(=O)N2CC(C)OC(C)C2)c1OC (stereo not drawn)	11.3%

Structure (SMILES)	hERG current change (%, negative = inhibition) at 10uM
CCC(=O)Nc1sc2c(c1C(N)=O)CCN(C(C)=O)C2	10.7%
COc1cccc([C@H](O)Cn2cc(-c3ccc(CON=C(C)C)cc3)nn2)c1	8.09%
COc1ccc(S(=O)(=O)N/N=C\c2ccc3c(c2)OCO3)cc1	0.548%
Cc1ccc(NC(=O)CSCC(=O)N2CCCc3ccccc32)cc1	-26.4%
CCCc1nnc(NC(=O)CCC(=O)NCc2ccccc2OC)s1	21.4%
Cc1ccc(SCc2[nH]nc3c2C2(C(=O)Nc4ccc(F)cc42)C(C#N)=C(N)O3)cc1 (stereo not drawn)	-6.28%
O=C(CSc1ccccn1)N1CCOCC1	-7.56%
CCOC(=O)CN1C(=O)S/C(=C\c2ccc3c(c2)OCO3)C1=O	4.47%
CC(C)(O)C#Cc1ccc(C(=O)NCCC(=O)O)s1	32.6%
O=C(NCC(O)c1ccccc1)c1ccc(Cl)c(S(=O)(=O)N2CCCC2)c1 (stereo not drawn)	-0.367%
CC1(C)CC(=O)C(C(C#Cc2ccccc2)C2=C(O)CC(C)(C)CC2=O)=C(O)C1	6.97%
Cc1ccc(NC(=O)CSc2nnc(Cc3csc(C)n3)o2)c(C)c1	14.5%
O=Cc1cn(CCC(=O)O)nc1-c1cccc2ccccc12	13.5%
CCOC(=O)c1cc2cc(F)ccc2nc1C	2.03%
CC(NC(=O)CCC(=O)c1ccccc1)c1ccc(F)cc1 (stereo not drawn)	10.3%
Cc1ccc(N2CC(C(=O)N3CCN(C(=O)c4ccco4)CC3)CC2=O)cc1 (stereo not drawn)	-71.7%
Cc1ccccc1NC(=O)CSc1nnc(NC(=O)C2CC2)s1	2.89%
O=C(NNC(=S)Nc1ccccc1)c1cccs1	17.1%
O=C(N/N=C1\C2CN3CCN(C2)CC1(c1ccccc1)C3)Nc1ccccc1	-2.88%
Cc1ccc(OCCn2cc(/C=C(\C#N)C(=O)NCC3CCCO3)c3ccccc32)cc1 (stereo not drawn)	11.4%
COc1ccc2cc(/C=N/NC(=O)CSCc3ccc([N+](=O)[O-])cc3)c(Cl)nc2c1	0.136%
COc1cccc(/C(C)=N/NS(=O)(=O)c2ccc(Cl)cc2)c1	-4.83%
Cc1cccnc1NC(=O)C1CCN(S(=O)(=O)c2cccs2)CC1	-6.07%

Structure (SMILES)	hERG current change (%, negative = inhibition) at 10uM
O=C(c1ccc(C(=O)N2CCOCC2)nc1)N1CCOCC1	18.9%
N=C1C(c2ccccc2)=C(O)CN1Cc1ccco1	6.39%
O=[N+]([O-])c1cc([N+](=O)[O-])c2n[nH]c(-c3ccccc3)c2c1	3.26%
CC(=O)Nc1cc2c(cc1C(C)=O)OCCO2	7.08%
COc1ccc(NC(=O)Cn2c(=O)sc3ccccc32)c(OC)c1	-1.36%
C=CC1=C2C=C(C3CC3)N(CC3CC3)C=C2C(=O)C(C)(OC(=O)c2ccco2)C1=O (stereo not drawn)	-12.1%
CNc1nc(Nc2ccc(C)c(Cl)c2)nc(N)c1[N+](=O)[O-]	9.55%
C=CCSc1nc2ccccc2n1S(=O)(=O)c1ccc(C)cc1	15.9%
CN(C(=O)COc1coc(CN2CCN(c3ccccc3)CC2)cc1=O)c1ccccc1	-5.19%
O=C(O)CCCCCN1C(=O)CCC1=O	8.39%
Cl.NC(=O)c1[nH]cnc1N	5.73%
CCS(=O)(=O)Nc1ccc(C(=O)c2ccccc2)cc1	-4.22%
COc1ccccc1/C=C/C(=O)N1CCc2cc(OC)c(OC)cc2C1C (stereo not drawn)	-24.4%
Cc1cccc(NC(=O)c2ccc(F)c(S(=O)(=O)NCc3ccco3)c2)c1	-18.1%
CC(=O)c1ccc(N2CCN(C(=O)c3cc(-c4ccc5c(c4)OCO5)nc4ccccc34)CC2)cc1	2.88%
COc1cc(C(=O)NCc2nnc(SCC(=O)c3ccc(Cl)cc3)o2)cc(OC)c1OC	-13.4%
CCOc1ccc(CC(=O)NCC2(N3CCCCC3)CCCCC2)cc1	-17%
COc1ccccc1C(=O)NNC(=O)c1ccccc1Br	23%
Cc1ccc(S(=O)(=O)N(C)CC(=O)OCC(=O)c2c(N)n(C)c(=O)n(C)c2=O)cc1	-47.1%
CC(C)(C)c1ccc(S(=O)(=O)N2CC(C(=O)O)Oc3ccc(Cl)cc32)cc1 (stereo not drawn)	-3.82%
Cc1cc(Oc2ccc(=O)n(C)n2)nc(SCCOc2ccccc2)n1	-31.6%
c1ccc(COCCCn2cc(-c3ccccc3)nn2)cc1	3.86%
Cc1cc(C(=O)CSc2nnnn2C)c(C)n1Cc1ccco1	27.7%

Structure (SMILES)	hERG current change (%, negative = inhibition) at 10uM
CCOC(=O)C1=C(Cc2ccc(F)cc2)C(=O)c2ccccc2C1=O	4.36%
COc1ccc(C2/C=C\CN(S(=O)(=O)/C=C/c3ccccc3)CC(=O)N2Cc2ccc(F)cc2)cc1 (stereo not drawn)	-8.33%
CC(O)CNc1nc2c(c(=O)n(C)c(=O)n2C)n1Cc1cccc(C(F)(F)F)c1 (stereo not drawn)	-12.9%
CCOc1ccc(-c2cccc(NC(=O)COc3ccc(Cl)cc3)c2)nn1	3.64%
Cc1cc(C)c(/C=C(\C#N)C(N)=S)c(C)c1	8.24%
O=C(c1ccc(-n2cccn2)cc1)N1CCc2c([nH]c3ccccc23)C1c1ccccn1 (stereo not drawn)	-2.49%
CC(=O)c1ccc(C)cc1OC(=O)c1cccc(F)c1	13.4%
COc1cccc(CNc2nnnn2C)c1	14.2%
CC(=O)Nc1cccc(NC(=O)c2ccc(C(=O)Nc3cccc(NC(C)=O)c3)nc2)c1	25.7%
COc1ccc(OC)c(N/C(C)=C/C(=O)c2ccc(Br)cc2)c1	-0.328%
CCCc1cc(C(=O)NC(C)C2CCCO2)cs1 (stereo not drawn)	7.72%
Cn1nccc1C(=O)OCC(=O)Nc1ccc(S(N)(=O)=O)cc1	9.48%
Cc1nc(-c2cccc(S(=O)(=O)N3CCC(C)CC3)c2)cs1	-13.4%
COC(=O)C1CCN(CC(=O)Nc2ccc(OC)c(Cl)c2)CC1	13.1%
O=C(NCc1ccccc1)N(Cc1cc2cc3c(cc2[nH]c1=O)OCO3)CC1CCCO1 (stereo not drawn)	12.7%
CC(C)c1nnc(NC(=O)CCC(=O)N2CCN(C3CCCCC3)CC2)s1	-0.653%
COc1cccc(-c2ccc(C#N)c(=O)[nH]2)c1	5.06%
O=C(CC1Sc2ccccc2NC1=O)NCc1ccc(Cl)cc1 (stereo not drawn)	13.7%
COc1ccc([C@@H]2[C@@H]3C(=O)N(C(C)(C)C)C(=O)[C@@H]3[C@]3(Cc4ccc(Cl)cc4)C(=O)N(c4cccc(F)c4)C(=O)N23)cc1	11.2%
COc1ccc(NC(=S)N2CCC(Cc3ccccc3)CC2)cc1OC	-45.3%
CCOc1ccc(N(CC(=O)NCc2ccc(F)cc2)C(=O)c2ccco2)cc1	-54.6%
